About 2,200 (0.71%) of roughly 310,000 compounds showed an effect of 50% or more. Effects have a minus sign here. Some of the results follow.
molecular target: human ether-à-go-go-related gene (hERG) potassium channel (human, UniProt Q12809); experiment: primary screen, population patch clamp on CHO cells stably expressing hERG
Sequence (Q12809 whole entry, looked up): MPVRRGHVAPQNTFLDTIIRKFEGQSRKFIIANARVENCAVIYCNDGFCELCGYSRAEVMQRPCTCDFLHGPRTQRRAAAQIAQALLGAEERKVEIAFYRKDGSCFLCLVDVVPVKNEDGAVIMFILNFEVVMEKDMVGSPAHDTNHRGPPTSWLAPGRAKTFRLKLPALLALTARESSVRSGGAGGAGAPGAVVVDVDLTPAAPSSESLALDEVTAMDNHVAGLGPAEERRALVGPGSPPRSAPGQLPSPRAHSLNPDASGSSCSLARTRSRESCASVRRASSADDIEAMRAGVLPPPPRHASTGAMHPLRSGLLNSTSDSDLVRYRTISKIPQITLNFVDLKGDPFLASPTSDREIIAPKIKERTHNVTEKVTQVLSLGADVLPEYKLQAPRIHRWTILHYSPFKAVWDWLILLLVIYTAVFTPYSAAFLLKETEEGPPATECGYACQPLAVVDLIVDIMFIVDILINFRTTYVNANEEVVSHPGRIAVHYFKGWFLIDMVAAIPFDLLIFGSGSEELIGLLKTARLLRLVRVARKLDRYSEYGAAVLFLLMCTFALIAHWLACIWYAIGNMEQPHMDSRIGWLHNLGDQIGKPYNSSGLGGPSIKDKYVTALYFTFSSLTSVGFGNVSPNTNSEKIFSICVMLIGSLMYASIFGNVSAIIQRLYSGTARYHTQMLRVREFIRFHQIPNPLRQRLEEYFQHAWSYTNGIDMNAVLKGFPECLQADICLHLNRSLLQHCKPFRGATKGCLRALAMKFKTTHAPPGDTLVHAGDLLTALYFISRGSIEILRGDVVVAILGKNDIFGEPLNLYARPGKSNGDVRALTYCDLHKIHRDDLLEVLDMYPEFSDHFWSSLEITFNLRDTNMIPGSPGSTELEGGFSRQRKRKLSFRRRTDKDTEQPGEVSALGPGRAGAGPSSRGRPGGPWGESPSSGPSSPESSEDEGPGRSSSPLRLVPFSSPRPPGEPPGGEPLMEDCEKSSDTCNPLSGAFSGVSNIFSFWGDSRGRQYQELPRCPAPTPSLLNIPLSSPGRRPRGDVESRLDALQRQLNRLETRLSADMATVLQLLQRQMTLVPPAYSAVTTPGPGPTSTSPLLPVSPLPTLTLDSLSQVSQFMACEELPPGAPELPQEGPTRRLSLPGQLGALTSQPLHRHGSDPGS

SMILES	hERG current change (%, negative = inhibition) at 1uM [%]
CC(Oc1cccc(Cl)c1)C(=O)Nc1ccccc1N1CCCC1 (stereo not drawn)	3.4
CCOC(=O)c1[nH]c(=O)[nH]c1CNc1ccccc1C#N	16.1
COc1ccc(-c2nc(CS(=O)(=O)CC(=O)Nc3ccc(Cl)cc3)c(C)o2)cc1	10.2
COc1ccc(F)cc1S(=O)(=O)Nc1cccc(C(=O)O)c1	3.88
COc1ccc(S(=O)(=O)N(C)C)cc1NS(=O)(=O)c1ccc(F)c(F)c1F	10.6
CCOP(=O)(/C(C#N)=C(/O)c1ccccc1)c1ccccc1 (stereo not drawn)	13.6
Nc1cc(=O)[nH]c(SCC(=O)Nc2cc(Cl)ccc2Cl)n1	6.76
COc1ccc(NC(=O)CSc2nnc3ccc(-c4ccncc4)nn23)cc1OC	5.11
FC(F)(F)c1nnc2c(Sc3ccc(Cl)cc3)nc3ccccc3n12	11.9
Cc1ccc(C(C(=O)NC2CCCCC2)N(Cc2cccnc2)C(=O)c2csnn2)cc1 (stereo not drawn)	1.4
COc1cccc(C2C(C(=O)/C=C/c3ccco3)=C(O)C(=O)N2CCN2CCOCC2)c1 (stereo not drawn)	10.5
CNc1nc(CC(C)=O)ns1	6.99
O=C(NCCc1c[nH]c2ccccc12)c1cc([N+](=O)[O-])cc([N+](=O)[O-])c1	3.96
O=c1c2ccccc2nc(SCc2nnc(-c3ccccc3Br)o2)n1-c1ccccc1	-2.2
COCCN(C(=O)COC(=O)CCOc1ccccc1)c1c(N)n(Cc2ccccc2)c(=O)[nH]c1=O	14.9
COc1cc(/C=N/NC(=O)c2cnn3c(C)cc(-c4ccccc4)nc23)ccc1O	5.69
O=C(NCCc1ccccc1)c1ccc(NC(=O)c2cccnc2)cc1	8.3
Nc1ccc2nc(-c3cc(Cl)c(N)c(Cl)c3)[nH]c2c1	5.16
COc1ccc2c(c1)c1nnc(SCC(=O)N3C(C)CCCC3C)nc1n2C (stereo not drawn)	-4
Cc1ccc(C)c(NC(=O)C(OC(=O)c2cnc(C)cn2)c2ccccc2)c1 (stereo not drawn)	11
O=C(CSC1=NCCS1)N1CCN(c2ccc(Cl)cc2)CC1	-8.24
Cc1ccc(C(C(=O)NC2CCCCC2)N2CCC3(CC2)OCCO3)cc1 (stereo not drawn)	10.1

SMILES	hERG current change (%, negative = inhibition) at 1uM [%]
Cc1ccc(S(=O)(=O)N(CC(=O)Nc2ccccc2)C(=O)N2CCN(C)CC2)cc1	16.5
COc1ccc(C(C(=O)NC2CCCC2)N(C(=O)c2ccoc2C)c2cc(C)cc(C)c2)cc1 (stereo not drawn)	4.95
CN(C)S(=O)(=O)c1ccc(Cl)c(NC(=O)COC(=O)c2cc(-c3ccccc3)nc3ccccc23)c1	13
COc1cc(C(=O)Nc2ccc(S(=O)(=O)N3CCOCC3)cc2)c([N+](=O)[O-])cc1OC	19.5
COc1ccc(CNC(=O)C(=O)NCCCn2ccnc2)cc1	18.9
COc1ccc(NC(=O)CSCC(=O)Nc2nnc(C3CC3)s2)cc1	17.5
COc1cc(-c2nc(C(=O)NC3CCN(Cc4ccccc4)CC3)cc3c2[nH]c2ccccc23)cc(OC)c1OC	7.8
N#Cc1c(Nc2ccc(Cl)cc2)s[nH]c1=O	2.9
Cc1cccc(N2CC(C(=O)Nc3nnc(SCCC4OCCO4)s3)CC2=O)c1 (stereo not drawn)	10.4
O=C(C[n+]1ccc(/C=N/O)cc1)N1CCCCC1.[Cl-]	15
COc1ccc(C(=O)Nc2ccccc2C(=O)N(Cc2ccco2)C(C(N)=O)C(C)C)cc1 (stereo not drawn)	12.4
Cc1oc(-c2cccs2)nc1CN1CCN(Cc2ccc(F)c(F)c2)C(CCO)C1 (stereo not drawn)	-18.2
COc1ccccc1NC(=O)Cn1nnc(-c2ccccc2NS(=O)(=O)c2ccccc2)n1	7.71
Cn1c(=O)n(C)c2cc(CN3C(=O)OC(C)(C)C3(C)O)ccc21 (stereo not drawn)	10.4
CCOc1ccc(NS(=O)(=O)c2cc(C(=O)N3CCN(C(C)=O)CC3)ccc2Cl)cc1	13
O=C(c1ccc2c(=O)n(Cc3ccccc3)c(=S)[nH]c2c1)N1CCCC1	12.7
O=C(Cn1ncc(Cl)c(Cl)c1=O)NC1CCCCC1	-7.92
CCOc1ccc(NC(=O)c2cnc3scc(C)n3c2=O)cc1	6.74
Cc1ccc(CNC(=O)c2ccc(CS(=O)Cc3ccccc3Cl)o2)cc1 (stereo not drawn)	15
S=C(Nc1cccnc1)NC1CC2CCC1C2 (stereo not drawn)	16.5
CCCCOc1ccc(C(=O)Nc2cc(C)c(OCC(=O)N3CCOCC3)c(C)c2)cc1	-2.41
OC(c1cc(-c2ccc(C(F)(F)F)cc2)nc(C(F)(F)F)c1)C1CCCCN1 (stereo not drawn)	11.4

SMILES	hERG current change (%, negative = inhibition) at 1uM [%]
C=CCn1c(SCC(=O)Nc2nc(C)cs2)nnc1C(NC(=O)c1ccccc1)C(C)C (stereo not drawn)	9.32
Cc1ccc(NC(=O)Nc2ccc3c(c2)OCO3)c(OC(F)F)c1	-0.268
COc1cccc(CNC(=O)CCC2CCCN(Cc3ccc4c(c3)CCO4)C2)c1 (stereo not drawn)	-16.4
CCOc1ccccc1NC(=O)Cc1cccs1	11.3
c1ccc(C[C@H]2CNCCN2CC2(c3ccccc3)CC2)cc1	3
CC1CCN(C(=O)C2CCN(S(=O)(=O)c3cc(Cl)ccc3Cl)CC2)CC1	7.12
O=C(Nc1ccc(F)cc1)c1cc(S(=O)(=O)N2CCCCC2)ccc1F	-1.38
COc1ccc(C(=O)Nc2ccc(C(=O)OCC(=O)c3ccccc3)cc2)cc1	0.867
Cc1ccc(Sc2ncccc2C(=O)NCc2cc([N+](=O)[O-])ccc2O)cc1C	9.24
CCC(CC)c1nnc(NC(=O)c2cccc(S(=O)(=O)N3CCc4ccccc43)c2)s1	13.3
Cc1ccccc1OCCOCCN1CCCCCC1.O=C(O)C(=O)O	-10.8
Cc1c(C(=O)N2CCCCC2)c(S(=O)(=O)NCCc2ccccc2)c(C)n1C	11.5
COC(=O)c1nnn(Cc2ccccc2)c1N	13.7
Nc1cc(=O)[nH]c(SCc2nnnn2-c2ccc(Cl)cc2)n1	4.85
CC(=O)c1cccc(NC(=O)COC(=O)c2ccc3c(c2)OCCO3)c1	5.83
COc1ccccc1CNC(=O)c1csc2c1CCCC2	15
COc1ccc(-n2c(C)cc(C(=O)COC(=O)c3cc(OC)c(OC)cc3NC(=O)c3cccs3)c2C)cc1	6.49
COc1ccccc1NC(=O)Nc1nnc(CC(=O)Nc2ccccc2)s1	-3.09
O/N=C/c1c[nH]c2ccccc12	10
CC(=O)Nc1ccc2c(c1)nc(CCN1CCN(c3ccccn3)CC1)n2C	12
COc1cccc(C(=O)N2CCN(c3ccccn3)CC2)c1	14.1
Cc1cc(C)cc(-n2ncc3c2CCCC3NC(=O)c2csnn2)c1 (stereo not drawn)	-84

SMILES	hERG current change (%, negative = inhibition) at 1uM [%]
C=CCOc1ccc2ccccc2c1CNn1cn[nH]c1=S	11.8
COc1ccc(-n2c(COc3ccccc3)n[nH]c2=S)cc1	11.7
Cc1cccc(-c2noc(CN(C(=O)c3ccc4c(c3)OCO4)C(C)C)n2)c1	0.803
Cc1cccc(C(=O)NC(=S)NNC(=O)c2ccccc2Cl)c1	11.5
O=C(COC(=O)Cc1ccccc1[N+](=O)[O-])NCc1ccccc1Cl	9.66
O=C1N=c2ccccc2=C1c1sc(=S)n(Cc2ccccc2Cl)c1O	4.3
Cn1c(=O)n(C)c2cc(NC(=O)CSc3nc4ccccc4c(=O)[nH]3)ccc21	17.6
O=C(Nc1cccc(F)c1)C1CCN(C(=O)Cc2ccccc2)CC1	5.14
CCCCN1CC[C@H]2C=CC[C@@H](C(=O)Nc3ccccc3)[C@H]2C1=O	3.83
CN(C)CCCN=Cc1c(O)n(Cc2ccccc2)c(=O)c2ccccc12	-25.5
COc1cc2ncnc(NCc3ccc(F)cc3)c2cc1OC	-11.8
CC(=O)Nc1ccc(NC(=O)c2cc(-c3ccc(C)cc3O)n[nH]2)cc1	13.8
O=C(CCN1C(=O)C2C3C=CC(C3)C2C1=O)N1CCN(c2ccccc2F)CC1 (stereo not drawn)	6.95
CCCNS(=O)(=O)c1ccc(N2CCCC2=O)c([N+](=O)[O-])c1	7.62
COc1cccc2cc(C(=O)NCCN3CCOCC3)oc12	11.1
Cc1ccc(Cl)cc1-n1ncc2c(NNC(=O)c3ccco3)ncnc21	4.23
Cc1nonc1OC(C)CNc1ccc([N+](=O)[O-])cc1 (stereo not drawn)	-20.5
CCSc1nnc(NC(=O)C(C(F)(F)F)C(F)(F)F)s1	7.55
COc1c(F)c(F)c(C(=O)O)c(Nc2ccccc2)c1F	-5.65
O=C(/C=C/c1ccccc1[N+](=O)[O-])NCc1ccc(Cl)cc1	4.33
CCC1CCCCN1CCCNC(=O)c1ccc(N2CCOCC2)c(NS(=O)(=O)c2ccc(OC)cc2)c1 (stereo not drawn)	-18.5

Reference: PMC4336329 (PLoS ONE, 2015)
